Source: the RNAGym collection of RNA variant scans (doi:10.7554/elife.90254)
Read counts are not given, so values of variants with three or more changes are uncertain.

B1: LINE1-mini (parent)
chain: GGCAGAGCUCAACACAGCGUGGCAAAGUGGCUGUGGCUAGACUGCC

Variants of: B1
Assay: self-cleavage, relative activity (ratio to wild type); higher = more cleavage; in vitro, sequencing; the parent is a self-cleaving ribozyme

| Variant | self-cleavage |
| --- | --- |
| G5U U32G U34G | 0.02 |
| A6C G7C G19C G21A G22C C23A U28A U43A | 0.01 |
| A6C C18U A26U U28A U34A | 0.03 |
| G5U G35C U38G G40U | 0.08 |
| G5U C31U C46A | 0.03 |
| G5U G7U C42U | 0.03 |
| A6C A14C C15A G19U | 0.37 |
| A6C U9C A25G G27U | 0.07 |
| A6C U9A C23G A41U | 0.09 |
| G5U G7C A16G C23G U32G G36A | 0.03 |
| A6C C13A C23G G29U C31U | 0.25 |
| A6C C15A C37G | 0.01 |
| A6G A16U G19U G33C G40A U43C | 0 |
| A6C G19A C37A U38G A39U C45U | 0.02 |
| A6C A12G A39C A41G | 0.16 |
| G5U U20A A26G | 0.02 |
| A6C U32G U38C | 0.01 |
| A6C C15U A26G G36A | 0.08 |
| G5U C18U G33C A41C | 0.06 |
| A6C C8A G19A | 0.82 |
| A6G A14U G21U | 0.16 |

| Variant | self-cleavage |
| --- | --- |
| A6C G35C G36U A39U G44A | 0.01 |
| G5U G22U G35A C45A | 0.04 |
| G5U G21U U32C | 0.24 |
| G5U G7A A12G C23G U34C C45A C46A | 0.02 |
| G5U G36A G40U G44U | 0.07 |
| G5U G22C G36C C45U | 0.02 |
| A6G A16G U20A C23U | 0.12 |
| A6C A16G G30U | 0.13 |
| A6C A12C A25C C46U | 0.03 |
| A6C U9A A25G U28A G40A | 0.14 |
| A6G C8G G35U G44A | 0.03 |
| A6C C10A G19A A41G C46A | 0.05 |
| A6C G30C C31A G33A | 0.03 |
| G5U U20G A24C G44U | 0.03 |
| A6C G30C G36A C37A | 0.1 |
| A6G C8G G17A G35A A41C C45A | 0.01 |
| G5U C31A C37G C46G | 0 |
| G5U G27C U28G | 0.06 |
| G5U G7C C15U C23U | 0.09 |
| G5U G19U A26C C46U | 0.03 |
| A6C C8U G27C C46U | 0.21 |

| Variant | self-cleavage |
| --- | --- |
| A6C G29U C31A U43A | 0.02 |
| G5U U28G G35C C42U G44A | 0.04 |
| A6C A24G C31A G44U | 0.17 |
| A6G C8G C23U G30U | 0.07 |
| G5U U28G G33A | 0 |
| A6C C8A A11G A16U C46A | 0.02 |
| A6C C18G G44A | 0.04 |
| G5U U32C G36A | 0.06 |
| G5U C31A C42A C46A | 0.03 |
| A6G C8U C18A G33A | 0.28 |
| A6C A12G G21A U38G | 0.01 |
| A6G A14U C23U G29U C31G | 0.02 |
| A6C A14C G44U | 0.09 |
| A6C G17A G36U U43G C45U | 0.01 |
| A6C C13U C15A U20G G22U C45U | 0.03 |
| A6G A12C A14C C15U C42U | 0.06 |
| A6C G19U U20G | 0.48 |
| A6C A16G A41U C42G C45A | 0.01 |
| G5U C18U U34G | 0 |
| A6G A16U G27A | 0.07 |
| A6C U9G C10A | 0.02 |

| Variant | self-cleavage |
| --- | --- |
| A6C A16U U43A | 0.04 |
| A6G A16G C31G G33A | 0 |
| A6C G7C G30A | 0.8 |
| A6C G17C A24C C46U | 0.03 |
| G5U G7C C10U G27A G29U | 0.01 |
| A6C A24G A25G G29A A41G | 2.03 |
| G5U G19U U28G A41G G44A | 0.01 |
| A6C C8U C13U A14C G19U U43G C45G | 0.01 |
| A6C C23G G40C | 0 |
| A6C G27A G29C C42A U43C | 0.03 |
| G5U G27U U28G G40C | 0.03 |
| G5U G21A U34G | 0 |
| A6C C13U U20C | 0.06 |
| G5U G19U G35U | 0.07 |
| A6C A16U A25U | 0.05 |
| A6C C18A G21A G22U C42A | 0.1 |
| A6C A25G G30U | 0.59 |
| A6C C8G C15U | 0.02 |
| A6G C8G C13G A16G C42A | 0.03 |
| G5U G17U A25G C37A G44C | 0 |
| A6C G22U C37U | 0.02 |
